The whole screen tested about 43,000 compounds, of which about 200 (0.47%) were called active. About 12% were inconclusive and are not listed. Calls follow the shape of the dose curve; as a rule, active = well fitted cell-killing curve with a large enough effect; inconclusive = small, poorly fitted or top-dose-only effect, or effect the other way; inactive = flat fitted curve, though single readings scatter. This is one part of the list.
Assay: Cell viability qHTS assay in S16 Pmp22-F2sN cells; also: nearly all actives have a fitted effect of over 65% in size
Conditions: S16 Pmp22-F2sN Schwann cells (luciferase reporters placed in the Pmp22 gene) viability, CellTiter-Glo, 24 h; series mostly up to 57.5 µM; activity change, negative = cytotoxicity: at the top concentration
Summary of the method: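 S16 Schwann cells carrying the Pmp22-F2sN reporter, seeded in 1536-well format, were exposed to library compounds for 24 h at 37C. Viability was read as CellTiter-Glo luminescence after 15 min at room temperature.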
% is scaled to controls: 0 for no effect and ±100 for the full control effect.

Row | Compound | activity change, negative = cytotoxicity
1 | Cc1ccc(C(=O)Nc2nnc(S(=O)(=O)N3CCCCCC3)s2)cc1 | inactive: -4.94%
2 | COc1ccc(CNC(=O)CCc2c(C)c3cc4c(C)c(C)oc4cc3oc2=O)cc1 | inactive: -0.807%
3 | O=C(Cn1ccn(-c2ccc(F)cc2)c(=O)c1=O)Nc1ccccc1C(F)(F)F | inactive: 2.56%
4 | CCCCc1nn2c(=O)cc(COC(=O)c3ccccc3NC(=O)c3cccs3)nc2s1 | inactive: -3.95%
5 | Cc1cc(C)cc(C(=O)n2nc(C)c(S(=O)(=O)N3CCCCCC3)c2C)c1 | inactive: -3.75%
6 | O=C(Nc1ccc(Cl)cc1Cl)c1cc(S(=O)(=O)N2CCCCCC2)ccc1F | inactive: 4.1%
7 | O=C1CC(c2cc(F)cc(F)c2)c2cc3c(cc2N1)OCO3 (stereo not given) | inactive: 12.9%
8 | Cc1c(C(=O)N2CCN(c3ccc(F)cc3)CC2)sc2nc3n(c(=O)c12)CCC3 | inactive: -10.4%
9 | CC1=C(C(=O)Nc2ccc(Cl)cc2)C(c2cccs2)n2nc(SCc3cccc(C)c3)nc2N1 (stereo not given) | inactive: 2.82%
10 | Cc1ccc(NC(=O)c2cnc(SCC(=O)N3CCCc4ccccc43)n(C)c2=O)cc1 | inactive: -18.8%
11 | CC(C)(C)OC(=O)N1CCC(c2c(C(=O)N3CCN(c4ccccc4F)CC3)cnn2-c2ccccc2Cl)CC1 | inactive: 11.1%
12 | COc1cc(Cl)c(NC(=O)CCc2nc3cccnc3n2-c2ccccc2)c(OC)c1 | inactive: 17%
13 | CC(=O)Nc1c(C)nn(-c2ccccc2)c1N1CCC(C(=O)NCc2cccc(Cl)c2)CC1 | inactive: -2.34%
14 | CCOc1ccc(NC(=O)CCNS(=O)(=O)c2ccc3c(c2)CCCC(=O)N3)cc1 | inactive: 14.4%
15 | CC1CCc2onc(C(=O)N3CCN(c4ccc(F)cc4)CC3)c2C1 (stereo not given) | inactive: -6%
16 | CCCCCN1C(C(=O)c2ccccc2)=C(NC(=O)c2ccc(C)cc2)c2ccccc2S1(=O)=O | inactive: -21.5%
17 | CCOc1ccc(NC(=O)c2c(NCc3cccnc3)sc3c2CCC(C)C3)cc1 (stereo not given) | inactive: -2.6%
18 | CCN(CC)C(=O)Cn1c(=O)n(-c2ccc(C)c(C)c2)c(=O)c2c(C)c(C(=O)N(CC)CC)sc21 | inactive: -18.6%
19 | CC(=O)c1sc(NC(=O)c2c(-c3ccccc3)c(-c3ccccc3)nn(C)c2=O)nc1C | inactive: -4.85%
20 | CCN1CCN(C(=O)c2cnn(-c3ccc(F)cc3F)c2C2CCN(C(=O)OC(C)(C)C)CC2)CC1 | inactive: 8.71%
21 | COc1ccc(OC)c(NC(=O)c2cnc(Nc3ccc(C)c(Cl)c3)c3ccccc23)c1 | inactive: 19.6%
22 | Cc1ccc(-n2ncc3c(N(C)C)ncnc32)cc1Cl | inactive: 1.31%
23 | CCC(Sc1nc(-c2ccccc2)[nH]c1S(=O)(=O)c1ccc(C)cc1)C(=O)O (stereo not given) | inactive: 3.18%
24 | O=C(NCCCN1CCN(c2ccc(F)cc2)CC1)c1cc2c(Cl)nc3ccccc3c2s1 | inactive: 16.4%

Row | Compound | activity change, negative = cytotoxicity
25 | CC(C)c1ccc(-c2noc(SCC(=O)N3CCCCC3C)n2)cc1 (stereo not given) | inactive: -6.8%
26 | Cc1cc(C)cc(OC(=O)c2cc(-c3ccc(Cl)cc3)on2)c1 | inactive: 3.09%
27 | Cc1cccc(-c2nc(CCNC(=O)c3ccc(Br)o3)cs2)c1 | inactive: -7.54%
28 | Cc1ccc(-c2nnc(Nc3ccc(C(N)=O)cc3)c3ccccc23)cc1S(N)(=O)=O | inactive: -2.59%
29 | COc1ccc(NC(=O)Cn2c(=O)c3cccn3c3ccccc32)cc1Cl | inactive: 11.7%
30 | COc1cccc2sc(NC(=O)c3ccc(S(=O)(=O)N4CCC(C)CC4)cc3)nc12 | inactive: -20.4%
31 | COc1ccc(N2CCN(C(=O)C3CCN(S(=O)(=O)c4cccc5nonc45)CC3)CC2)cc1 | inactive: -2.67%
32 | CCN1CCN(CCCNC(=O)CS(=O)(=O)Cc2nc(-c3ccccc3C)oc2C)CC1 | inactive: 25.9%
33 | Cc1nnc(N2CCCC(C(=O)NCCN(C)C)C2)c2nn(-c3ccccc3)c(C)c12 (stereo not given) | inactive: -10.2%
34 | CCOc1ccc(CNCc2c(C(=O)O)c(C)n(Cc3ccc(C)cc3)c2C)cc1 | inactive: -8.37%
35 | CCOc1ccccc1OCCCCn1c(-c2ccc(Cl)cc2)nc2ccccc2c1=O | inactive: -6.22%
36 | COc1ccc(C)cc1NC(=O)Nc1cc(C(=O)NCc2ccc(C)cc2)ccc1N1CCCC1 | inactive: -22.8%
37 | COc1ccc(-c2nc3sc(CCNC(=O)Cc4ccc(F)cc4)c(C)n3n2)cc1 | inactive: -7.2%
38 | Cc1sc(-c2cc3ccccc3oc2=O)nc1-c1ccc(Cl)c(Cl)c1 | inactive: -1.48%
39 | COc1ccc(-c2c(C)nn3c(-c4ccccc4)cc(C)nc23)cc1OC | inactive: -21.9%
40 | O=C(Cn1ncc2c3ccccc3n(Cc3cccc(Cl)c3)c2c1=O)NCCCc1ccccc1 | inactive: 1.57%
41 | Cc1cccc(C)c1NC(=O)Cn1cc(C(=O)c2ccco2)c2ccccc21 | inactive: -4.93%
42 | Cc1cc(C)n(C(C)CC(=O)Nc2cccc(C#N)c2)n1 (stereo not given) | inactive: 0.593%
43 | CCc1nc(Nc2ccc(F)c(Cl)c2)c2c3c(sc2n1)CCCC3 | inactive: 2.26%
44 | CCOc1ccc(-c2nn(-c3ccc(F)cc3)c3c2cnc2ccc(F)cc23)cc1 | inactive: 12.6%
45 | Cc1cc(O)c(C(c2ccccc2)N2CCN(c3ccccc3)CC2)c(=O)n1Cc1ccco1 (stereo not given) | inactive: 3.12%
46 | Cn1c(=O)c2c(nc(NCCCCO)n2Cc2ccccc2Cl)n(C)c1=O | inactive: -3.46%
47 | CN1C(=O)CC(C(=O)Nc2ccc(C(=O)O)cc2)SC1=Nc1ccc(Cl)cc1 (stereo not given) | inactive: 9.33%
48 | CCc1cccc(C)c1NC(=O)CCCn1c(C)c2cnn(-c3ccccc3)c(=O)c2c1C | inactive: -11.5%

Row | Compound | activity change, negative = cytotoxicity
49 | CCCCOC(=O)c1ccc(OC(=O)c2sc3ncn(Cc4cccc(F)c4)c(=O)c3c2C)cc1 | inactive: 4.22%
50 | CCOC(=O)c1[nH]c(C)c(CCC(=O)Nc2ccccc2OCC)c1C | inactive: 0.274%
51 | CCC(C)NC(=O)Cn1c(=O)n(CCCCCC(=O)Nc2ccccc2)c(=O)c2sccc21 (stereo not given) | inactive: 3.71%
52 | CC(=O)c1ccc(NC(=O)C(C)n2nc(-c3ccccc3)ccc2=O)cc1 (stereo not given) | inactive: -7.98%
53 | CCn1c2ccccc2c2cc(CN3CCN(Cc4ccc(Cl)cc4)CC3)ccc21 | inactive: -10.4%
54 | Cc1ccc2c(=O)cc(C(=O)Nc3ccc(S(=O)(=O)N4CCCCC4C)cc3)oc2c1C (stereo not given) | inactive: -4.68%
55 | CCN(CC)c1ccc(NS(=O)(=O)c2cc(-c3onc(C)c3C)ccc2OC)c(C)c1 | inactive: -4.12%
56 | CCN(CC)CCCNC(=O)Cn1ncc2c3ccccc3n(Cc3ccccc3)c2c1=O | inactive: 14.9%
57 | COc1cccc(-c2nnc(SCC(=O)N(C)c3ccccc3)o2)c1 | inactive: 0.0321%
58 | CC(=O)Nc1cc(C(=O)NCc2ccc(F)cc2)ccc1S(=O)(=O)c1ccc(C)cc1 | inactive: -1.42%
59 | Cc1c(CNC2CCC(C)CC2)c(C(=O)O)c(C)n1Cc1ccc(Cl)cc1 (stereo not given) | inactive: 1.4%
60 | CCOC(=O)C(CC)Sc1ncnc2c1c(-c1ccccc1)cn2-c1ccc(OC)cc1 (stereo not given) | inactive: 2.08%
61 | Cc1ccc(C)c(N(C)C(=O)c2cc3c(s2)-c2ccccc2OC3)c1 | inactive: 13.4%
62 | CCn1c(=O)c2cc(C(=O)NCc3ccc(F)cc3Cl)sc2c2ccccc21 | inactive: 12.4%
63 | Cc1cc(C)c(OCC(=O)N(Cc2ccc(N(C)C)cc2)CC2CCCO2)c(C)c1 (stereo not given) | inactive: -12.9%
64 | Cc1cc(=O)n(CC(=O)N2CCCc3ccccc32)c2c1c(C)nn2-c1cccc(F)c1 | inactive: -1.29%
65 | CCS(=O)(=O)N1CC(=O)N(c2ccc(Cl)cc2C)C(C)(C(=O)NC2CCCCC2)C1 (stereo not given) | inactive: -0.0837%
66 | O=C(NCCc1ccc(F)cc1)C(=O)NCC(c1cccs1)S(=O)(=O)c1ccc(Cl)cc1 (stereo not given) | inactive: -5.35%
67 | O=C(CSc1nnc(-c2ccccc2)c(-c2ccccc2)n1)NCCc1ccccc1 | inactive: -11%
68 | Cc1ccc(CNC(=O)CN(C)S(=O)(=O)c2ccc3c(c2)c(=O)n(C)c(=O)n3C)cc1 | inactive: 1.86%
69 | CCOc1ccc(N(C)S(=O)(=O)c2cc(-c3cc(C)no3)ccc2OC)cc1 | inactive: -18.1%
70 | COC(=O)c1c(NC(=O)COc2ccc(C)cc2Br)sc2c1CCCC2 | inactive: 1.92%
71 | Cc1cccc(NC(=O)C2CCCN(S(=O)(=O)c3ccc4c(c3)oc(=O)n4C)C2)c1C (stereo not given) | inactive: 3.18%
72 | CCc1ccccc1NC(=O)CN1C(=O)C2CCCN2c2ccc(S(=O)(=O)N(CC)CC)cc21 (stereo not given) | inactive: -10.3%

Row | Compound | activity change, negative = cytotoxicity
73 | COc1cccc(N2C(=O)C(CC(=O)Nc3ccccc3)N(CCc3sccc3C)C2=O)c1 (stereo not given) | inactive: -17%
74 | Cc1ccccc1C(=O)Nc1ccccc1OCc1cc(=O)n2ccccc2n1 | inactive: 8.09%
75 | Cc1ccc(C(=O)NCC(c2ccc3c(c2)OCO3)N2CCN(c3ccc(F)cc3)CC2)cc1 (stereo not given) | inactive: 7.52%
76 | CCOc1ccccc1NC(=O)Cn1c(=O)n(Cc2nc(C)no2)c(=O)c2ccccc21 | inactive: 2.65%
77 | Clc1ccccc1CNc1ncnc2c1nc1n2CCCC1 | inactive: -4.8%
78 | Cc1cccc(-c2nc(S(=O)(=O)c3ccc(Cl)cc3)c(N3CCCCCC3)o2)c1 | inactive: -1.18%
79 | Cc1cccc(CS(=O)(=O)Cc2ccc(C(=O)NCc3ccccc3)o2)c1 | inactive: -15.3%
80 | CCOc1ccc(C2CC(=O)NC(NC(=O)c3ccc(C)cc3)=N2)cc1 (stereo not given) | inactive: -2.02%
81 | COc1ccc(NC(=O)Cn2c(=O)n(CCC(C)C)c(=O)c3cccnc32)cc1Cl | inactive: 0.833%
82 | COc1cccc(-c2nc(SCC(=O)NCC3CCCO3)c(-c3ccc(C)cc3)[nH]2)c1 (stereo not given) | inactive: 0.244%
83 | Cc1ccc(OCC(=O)N(Cc2ccc(Cl)cc2)Cc2ccco2)cc1C | inactive: 8.14%
84 | CCOc1ccc(NC(=O)c2cc3c(C)nn(-c4ccccc4)c3s2)cc1 | inactive: -6.76%
85 | Cc1cc(C)cc(NC(=O)c2cc(C)nc3c2c(C)nn3-c2ccccc2)c1 | inactive: 2.91%
86 | Cc1cccc(Cn2cc(/C=C(/C#N)C(=O)Nc3cccc(Cl)c3)c3ccccc32)c1 | inactive: 7.7%
87 | Cc1ccc(Cn2c(C(=O)O)c(CNC3CCCCC3)c3ccc(C)cc32)cc1 | inactive: 9.83%
88 | CCN(C(=O)c1cc2c(=O)oc3ccccc3c2s1)c1ccc(C)c(C)c1 | inactive: 22.9%
89 | CC(C)NC(=O)C1CCC(Cn2c(=O)c3sccc3n(CC(=O)N3CCCC3)c2=O)CC1 (stereo not given) | inactive: 2.49%
90 | COc1ccc(NC(=O)c2ccc3c(=O)n4nc(Nc5ccccc5C)sc4nc3c2)cc1Cl | inactive: -4.55%
91 | Cc1ccccc1Nc1cc(C(=O)NC2CCCC2)c2ccccc2n1 | inactive: 6.28%
92 | Cc1nn(-c2ccccc2)c(OC(=O)c2cccc(Br)c2)c1S(=O)(=O)c1ccccc1 | inactive: 13.9%
93 | COc1cc(CNC(=O)c2sc3ncccc3c2-n2cccc2)cc(OC)c1OC | inactive: -11.5%
94 | COc1cccc(C2CC(=O)Nc3cc(OC)c(OC)c(OC)c32)c1OC(C)C (stereo not given) | inactive: -2.46%
95 | Cc1cccc(Cn2c(=O)n(CC3CCC(C(=O)NC(C)C)CC3)c(=O)c3sccc32)c1 (stereo not given) | inactive: 9.25%

— PubChem BioAssay AID1508642 (National Center for Advancing Translational Sciences (NCATS), 2021)
